Laboratory results: PubChem BioAssay AID686978 (National Center for Advancing Translational Sciences (NCATS), 2013)
Several values for one entry are separate records, joined by “and”; a condition that tells them apart may be missing. Identical values can stand only once. Hit rate of the full screen: of about 420,000 compounds, about 64,000 (15%) were called active. This list was built around the results that the source calls inconclusive (neither active nor inactive); the mix of calls is not that of the screen. The call rests on the fitted dose curve; in most records, active means well fitted inhibition curve with a large enough effect; inconclusive means small, poorly fitted or top-dose-only effect; inactive means flat fitted curve, though single readings scatter. Where the call is inconclusive, the potency comes from a doubtful curve fit.

experiment: qHTS for Inhibitors of human tyrosyl-DNA phosphodiesterase 1 (TDP1): qHTS in cells in absence of CPT; settings: DT40 Tdp1-/- hTDP1 cells, no CPT, ATP luminescence, 48 h; series mostly up to 46.2 µM; further: nearly all actives have a fitted effect of over 55% in size
Outline: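 A cellular qHTS used chicken DT40 cells lacking endogenous Tdp1 but carrying stably transfected human TDP1. Compounds were applied without camptothecin, and cell growth kinetics were judged by ATP-dependent luminescence after ≥48 hr.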
Potency means the concentration at half of the fitted maximal effect; tags describe the fitted curve by direction and shape.

Question: For `Cc1cccc(OCCSc2nc3ccc(NC(=O)COc4ccccc4)cc3s2)c1`, which Potency is on record?
Answer: inconclusive: 5.8 µM [inhibitor, partial curve]

Question: Which Potency does the source give for `CCOC(=O)CCc1ccc(NC(=O)/C=C/c2ccc([N+](=O)[O-])o2)cc1` here?
Answer: active: 3.26 µM

Question: With `Cc1ccccc1-c1nnc(-c2ccc(Cl)cc2)o1` as the compound, how does the Potency read?
Answer: inactive

Question: With `C[C@@H]1CN([C@H](C)CO)C(=O)c2cc(Br)cnc2O[C@@H]1CN(C)C(=O)c1ccccc1` as the compound, how does the Potency read?
Answer: inactive

Question: With `Cc1cc(=O)n2nc(N3CCCC(C(=O)NCCc4ccc(Cl)cc4)C3)sc2n1` (stereo not given) as the compound, how does the Potency read?
Answer: inconclusive: 23.1 µM [inhibitor, single point]

Question: For `CCCN1CCc2nc(N3CCN(c4ncccn4)CC3)ncc2C1`, which Potency is on record?
Answer: inconclusive: 29.1 µM [inhibitor, single point]

Question: For `Cc1nc2cc(-c3ccccc3)nn2c(C)c1CCC(=O)NC(C)c1ccc2c(c1)OCCO2` (stereo not given), which Potency is on record?
Answer: active: 18.4 µM

Question: Which Potency does the source give for `COC(=O)c1c(NC(=O)Cn2nc(C(F)F)cc2C(F)F)sc(C)c1C` here?
Answer: inconclusive: 29.1 µM [inhibitor, single point]

Question: With `CSc1nc(Oc2ccc3ccccc3c2)c2sccc2n1` as the compound, how does the Potency read?
Answer: inconclusive: 7.31 µM [inhibitor, single point]

Question: Which Potency does the source give for `CN(C)c1ccc(P(=O)(OC2CCCCC2)C(O)c2cccnc2)cc1` (stereo not given) here?
Answer: inactive

Question: Which Potency does the source give for `CCCCCCCCCCCNC(=O)c1ccoc1C` here?
Answer: active: 18.4 µM

Question: With `COc1ccc2ccccc2c1/C=N/NC(=O)CC1(C)OCCCO1` as the compound, how does the Potency read?
Answer: inconclusive: 25.9 µM [inhibitor, single point]

Question: Which Potency does the source give for `Cc1cccc(OCCCn2c(CCNC(=O)C(C)(C)C)nc3ccccc32)c1` here?
Answer: inconclusive: 23.1 µM [inhibitor, single point]

Question: For `Cc1cc(C)nc(-n2nc(C)cc2NC(=O)CN2CCCC(C)C2)n1` (stereo not given), which Potency is on record?
Answer: inconclusive: 20.6 µM [inhibitor, single point]

Question: Which Potency does the source give for `CC(Nc1nc2ccccc2n2cnnc12)c1ccccc1` (stereo not given) here?
Answer: inconclusive: 25.9 µM [inhibitor, single point]

Question: For `COc1ccc(CCN2C(=O)C3C4C=CC(C3C2=O)C2C(=O)N(CCc3ccc(OC)c(OC)c3)C(=O)C42)cc1OC` (stereo not given), which Potency is on record?
Answer: inconclusive: 35.5 µM [inhibitor, single point]

Question: For `Cn1cnnc1Sc1ccc(CN2CCOc3ccc(C4=Cc5ccccc5C4)cc3C2)o1`, which Potency is on record?
Answer: inactive

Question: Which Potency does the source give for `COc1ccc(S(=O)(=O)Nc2cc3c(cc2NCc2ccccc2)n(C)c(=O)n3C)cc1` here?
Answer: inconclusive: 23.1 µM [inhibitor, single point]

Question: For `COc1ccc(N2CCOCC2)c(NC(=O)c2cccnc2)c1`, which Potency is on record?
Answer: inactive

Question: With `O=C(c1ccc(Cl)c([N+](=O)[O-])c1)N1CCCc2ccccc21` as the compound, how does the Potency read?
Answer: inconclusive: 16.4 µM [inhibitor, single point]

Question: Which Potency does the source give for `COc1cccc(C(=O)N2CCC2(C)C(=O)O)c1` (stereo not given) here?
Answer: inactive

Question: With `CCn1c(SCC(=O)NC2=NCCS2)nnc1C(C)NC(=O)c1ccccc1F` (stereo not given) as the compound, how does the Potency read?
Answer: inactive

Question: Which Potency does the source give for `N#Cc1ccsc1NC(=O)C1CCN(C(=O)c2ccc(Cl)cc2)CC1` here?
Answer: inconclusive: 20.6 µM [inhibitor, single point]

Question: With `COC(=O)CCC(=O)OC1(C)C(=O)C2=CN(Cc3ccc(OC)cc3)C(c3ccc(OC)cc3)=CC2=C(Br)C1=O` (stereo not given) as the compound, how does the Potency read?
Answer: inconclusive: 18.4 µM [inhibitor, single point]

Question: For `CCOCCCNC(=O)C(=O)Nc1c2c(nn1-c1ccc(OC)cc1)CSC2`, which Potency is on record?
Answer: inconclusive: 16.4 µM [inhibitor, single point]

Question: With `CCN(CC(=O)NCc1ccccn1)S(=O)(=O)c1ccc(OC)cc1` as the compound, how does the Potency read?
Answer: inactive

Question: For `COc1ccc(S(=O)(=O)Nc2cc3c4c(c2)CCN4C(=O)CC3)cc1C`, which Potency is on record?
Answer: inconclusive: 18.4 µM [inhibitor, single point]

Question: Which Potency does the source give for `Cc1ccc2c(=O)c(C(=O)c3ccc(F)cc3)cn(CC(=O)NCCc3ccccc3)c2n1` here?
Answer: inactive

Question: For `CC(C)c1c(O)cc(-c2ccncc2)n(-c2ccc(Cl)cc2)c1=O`, which Potency is on record?
Answer: inconclusive: 20.6 µM [inhibitor, single point]

Question: With `O=[N+]([O-])c1ccc(O)c(/C=N/Nc2nc3ccccc3[nH]2)c1` as the compound, how does the Potency read?
Answer: active: 2.06 µM

Question: For `CCOc1ccc(S(=O)(=O)NCCC(=O)NC2CCN(Cc3ccccc3)CC2)cc1`, which Potency is on record?
Answer: inactive

Question: With `Cc1c(C(=O)NCc2ccccc2Cl)sc2nc[nH]c(=O)c12` as the compound, how does the Potency read?
Answer: inactive

Question: With `COc1ccc(CN(Cc2ccco2)c2cnc(S(C)(=O)=O)nc2C(=O)Nc2ccc(C)cc2C)cc1` as the compound, how does the Potency read?
Answer: inconclusive: 20.6 µM [inhibitor, single point]

Question: With `COc1ccc(C(=O)C(C)[n+]2ccc(C)c3ccccc32)cc1[N+](=O)[O-]` (stereo not given) as the compound, how does the Potency read?
Answer: active: 7.31 µM

Question: With `CC(C)(C)NC(=O)CCn1nc(-c2ccc(Cl)cc2)c2ccccc2c1=O` as the compound, how does the Potency read?
Answer: inconclusive: 25.9 µM [inhibitor, single point]

Question: With `O=S(=O)(NC1CCCCCC1)c1cccc(Cl)c1` as the compound, how does the Potency read?
Answer: inconclusive: 23.1 µM [inhibitor, single point]

Question: For `O=C(NCc1cccnc1)c1ccc2c(c1)C(=O)N(Cc1ccccc1)C2=O`, which Potency is on record?
Answer: inactive

Question: Which Potency does the source give for `CCC(CC)C(=O)Nc1nnc(-c2cccs2)s1` here?
Answer: inconclusive: 16.4 µM [inhibitor, partial curve, poor fit]

Question: With `CCOc1ccccc1NC(=O)/C=C/c1ccc(S(=O)(=O)N2CCOCC2)cc1` as the compound, how does the Potency read?
Answer: inconclusive: 29.1 µM [inhibitor, single point]

Question: Which Potency does the source give for `C[C@H]1COC(=O)CC/C=C\C[C@H](CC(=O)N(CCO)Cc2ccccc2)C(=O)N1` here?
Answer: inactive

Question: With `CCn1c(/C=C/c2cccc([N+](=O)[O-])c2)nc2ccccc2c1=O` as the compound, how does the Potency read?
Answer: inconclusive: 20.6 µM [inhibitor, single point]

Question: With `COc1ccc(C2CC(c3ccccc3)=NN2C(=O)CCC(=O)O)cc1` (stereo not given) as the compound, how does the Potency read?
Answer: inactive

Question: For `CC(CCc1ccccc1)NC(=O)c1cc2sccc2n1C` (stereo not given), which Potency is on record?
Answer: inconclusive: 25.1 µM [inhibitor, single point]

Question: Which Potency does the source give for `S=C(NCc1cccnc1)Nc1ccc(Cl)c(Cl)c1` here?
Answer: inconclusive: 17.8 µM [inhibitor, single point]

Question: For `CN1CCN(CCCNC(=O)c2ccc3nc(Cc4ccccc4)oc3c2)CC1`, which Potency is on record?
Answer: inactive

Question: With `COc1cccc(C(=O)N2CCN(Cc3ccc(OC)cc3OC)CC2)c1` as the compound, how does the Potency read?
Answer: inactive

Question: For `Cc1ccc(-n2nc3c(=O)n(CCCC(=O)NCc4ccccc4F)nc(C)c3c2C)cc1`, which Potency is on record?
Answer: inconclusive: 14.6 µM [inhibitor, partial curve] and inconclusive: 16.4 µM [inhibitor, partial curve]

Question: Which Potency does the source give for `O=C(CSc1nc2ccncc2[nH]1)Nc1ccccc1C(F)(F)F` here?
Answer: active: 14.6 µM

Question: With `O=C(Nc1c(C(=O)N2CCN(c3ccccc3F)CC2)oc2ccccc12)c1ccccc1F` as the compound, how does the Potency read?
Answer: active: 14.6 µM

Question: For `COC(=O)CCCCC1SCC(NC(=O)c2ccccc2)C1OC(C)=O` (stereo not given), which Potency is on record?
Answer: inconclusive: 8.2 µM [inhibitor, partial curve, poor fit]

Question: For `O=C(COc1ccc(Br)cc1)N1CCN(c2ncccn2)CC1`, which Potency is on record?
Answer: inconclusive: 29.1 µM [inhibitor, single point]

Question: For `CC(=O)Nc1ccc(Nc2nnc(-c3ccc(C)c(S(=O)(=O)NCCO)c3)c3ccccc23)cc1`, which Potency is on record?
Answer: inactive

Question: With `Cc1nc(-c2ccc(S(=O)(=O)N3CCN(c4ccc(F)cc4)CC3)cc2)co1` as the compound, how does the Potency read?
Answer: inconclusive: 13 µM [inhibitor, partial curve]

Question: With `CCOC(=O)c1oc2ccccc2c1NC(=O)c1cccc(OC)c1OC` as the compound, how does the Potency read?
Answer: active: 18.4 µM

Question: For `COc1ccc(C(=O)/C=C/Nc2ccccn2)cc1`, which Potency is on record?
Answer: inconclusive: 8.2 µM [inhibitor, partial curve]

Question: With `CCC12CN3CC(CC)(CN(C1)C3c1cc(Br)ccc1OC)C2=O` (stereo not given) as the compound, how does the Potency read?
Answer: inconclusive: 32.6 µM [inhibitor, single point]

Question: With `O=C1NC(=O)C(=Cc2ccccc2[N+](=O)[O-])S1` as the compound, how does the Potency read?
Answer: active: 20.6 µM

Question: Which Potency does the source give for `O=C(C1CCN(Cc2ccc(OCc3ccccc3)cc2)CC1)N1CCCC1` here?
Answer: inactive

Question: For `CCOC(=O)N1CCN(c2nc(C)c3c(n2)CCCC3=O)CC1`, which Potency is on record?
Answer: inconclusive: 32.6 µM [inhibitor, single point]

Question: For `N#Cc1ccccc1NC(=O)c1cnc(N2CCOCC2)c2ccccc12`, which Potency is on record?
Answer: inconclusive: 25.9 µM [inhibitor, single point]

Question: With `COc1ccc(C(C)(O)c2nc(-c3ccc(F)c(Cl)c3)cs2)cc1` (stereo not given) as the compound, how does the Potency read?
Answer: inconclusive: 20.6 µM [inhibitor, single point]

Question: Which Potency does the source give for `O=C(Cn1c(-c2ccc(Cl)cc2)noc1=O)N1CCN(c2ccccc2F)CC1` here?
Answer: inconclusive: 29.1 µM [inhibitor, single point]

Question: For `Cc1ccc(-c2nn(-c3ccccc3)cc2C=C2C(=O)CC(C)(C)CC2=O)cc1`, which Potency is on record?
Answer: inconclusive: 25.9 µM [inhibitor, single point]

Question: For `c1ccc2c(c1)OCC(c1csc3ncnc(N4CCOCC4)c13)O2` (stereo not given), which Potency is on record?
Answer: inconclusive: 18.4 µM [inhibitor, single point]

Question: Which Potency does the source give for `Cc1c(C=NNC(=O)c2ccc(Br)cc2)c2ccccn2c1C(=O)c1ccncc1` here?
Answer: inconclusive: 23.1 µM [inhibitor, single point]

Question: Which Potency does the source give for `CNC(=O)c1ccc(NC(=O)C2CCN(c3ncnc4sc(C)c(C)c34)CC2)cc1` here?
Answer: inconclusive: 20.6 µM [inhibitor, partial curve]

Question: For `O=C(CSc1ccc2c(c1)OCCO2)Nc1ccc(Cl)cn1`, which Potency is on record?
Answer: inconclusive: 29.1 µM [inhibitor, single point]

Question: For `O=c1[nH]c(/C=C\c2cccc(C(F)(F)F)c2)nc(O)c1[N+](=O)[O-]`, which Potency is on record?
Answer: inactive

Question: For `C=CCn1c(SCc2c(C(=O)OC)sc(N)c2C(=O)OC)nnc1-c1ccc(Br)cc1`, which Potency is on record?
Answer: active: 18.4 µM

Question: For `Cc1cc(OCc2cc(C(=O)N(C)CCc3cnn(C)c3)no2)cc(C)c1Cl`, which Potency is on record?
Answer: active: 20.6 µM
